Hit rate of the full screen: of about 310,000 compounds, about 2,200 (0.71%) showed an effect of 50% or more. Effects have a minus sign here. The list shows a part of the results.
Molecular target: human ether-à-go-go-related gene (hERG) potassium channel (human, UniProt Q12809)
Assay: primary screen, population patch clamp on CHO cells stably expressing hERG

Sequence of human ether-à-go-go-related gene (hERG) potassium channel (Q12809 whole entry, looked up): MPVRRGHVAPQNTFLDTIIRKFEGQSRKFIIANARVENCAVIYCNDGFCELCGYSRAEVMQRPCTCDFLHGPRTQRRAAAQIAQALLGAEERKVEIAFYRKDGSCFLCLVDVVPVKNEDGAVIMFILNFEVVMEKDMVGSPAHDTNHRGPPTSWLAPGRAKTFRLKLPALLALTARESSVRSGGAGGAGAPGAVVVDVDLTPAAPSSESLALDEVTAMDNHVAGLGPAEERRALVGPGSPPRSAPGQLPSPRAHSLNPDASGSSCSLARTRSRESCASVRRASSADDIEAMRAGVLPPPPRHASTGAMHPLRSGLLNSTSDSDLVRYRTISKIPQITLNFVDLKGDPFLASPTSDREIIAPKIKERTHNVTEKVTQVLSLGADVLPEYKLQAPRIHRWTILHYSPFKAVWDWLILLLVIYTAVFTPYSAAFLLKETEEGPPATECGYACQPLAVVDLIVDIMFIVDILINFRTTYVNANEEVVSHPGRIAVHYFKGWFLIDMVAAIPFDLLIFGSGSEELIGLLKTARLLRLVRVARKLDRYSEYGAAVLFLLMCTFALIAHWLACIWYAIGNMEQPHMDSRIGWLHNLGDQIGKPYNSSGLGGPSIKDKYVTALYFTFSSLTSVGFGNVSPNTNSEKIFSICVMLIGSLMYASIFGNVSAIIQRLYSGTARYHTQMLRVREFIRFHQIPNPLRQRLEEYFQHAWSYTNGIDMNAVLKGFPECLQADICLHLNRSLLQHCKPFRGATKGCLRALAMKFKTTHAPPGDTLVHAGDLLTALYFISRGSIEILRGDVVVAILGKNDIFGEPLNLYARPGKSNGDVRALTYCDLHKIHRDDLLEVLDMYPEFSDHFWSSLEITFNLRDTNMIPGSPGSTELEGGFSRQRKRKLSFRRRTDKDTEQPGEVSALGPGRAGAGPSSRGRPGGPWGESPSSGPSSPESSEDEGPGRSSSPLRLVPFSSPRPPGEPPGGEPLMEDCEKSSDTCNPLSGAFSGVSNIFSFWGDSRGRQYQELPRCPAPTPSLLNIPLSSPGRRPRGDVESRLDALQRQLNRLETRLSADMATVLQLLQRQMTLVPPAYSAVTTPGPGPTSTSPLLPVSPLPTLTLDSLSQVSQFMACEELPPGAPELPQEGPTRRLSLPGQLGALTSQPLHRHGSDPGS

Row | Structure (SMILES) | hERG current change (%, negative = inhibition) at 1uM [%]
1 | Cc1ccc(N=Cc2c(O)n(-c3ccc4c(c3)OCO4)c(=O)c3ccccc23)cc1 | 7.06
2 | COc1ccc(CCNC(=O)CC(Cc2ccc(C)cc2)C(=O)O)cc1OC (stereo not drawn) | 13.4
3 | CN(C)S(=O)(=O)Nc1cccc(NC(=O)CC23CC4CC(CC(C4)C2)C3)c1 | 7.88
4 | COC(=O)c1cc(NC(=O)c2c(-c3c(Cl)cccc3Cl)noc2C)ccc1N1CCOCC1 | 10.8
5 | CC(CCc1ccccc1)NC(=O)C(=O)NCc1ccccc1 (stereo not drawn) | 15.7
6 | Cc1ccc2cc(C)c3nnc(SCC(=O)N4CCN(C(=O)c5ccco5)CC4)n3c2c1 | 3.46
7 | Cc1cccc(C(=O)Nc2cccc3c2CCCC3)c1 | 22.2
8 | Cc1nc(SC(C(N)=O)c2ccccc2)c(C#N)c(C)c1C (stereo not drawn) | 14
9 | CC(C)(CN)CC(=O)O.Cl | 3.54
10 | Cc1ccc(S(=O)(=O)N2CCN(C(=O)COc3ccc(Br)cc3)CC2)cc1 | -2.11
11 | COc1ccc(CCNc2ncnc3c2oc2ccccc23)cc1OC.Cl | 7.16
12 | COCCN=C1NC(=O)C(CC(=O)Nc2cccc(Cl)c2C)S1 (stereo not drawn) | 4.63
13 | Cc1cc(=O)oc2cc(OCC3CC(c4ccc(Cl)cc4)=NO3)ccc12 (stereo not drawn) | 1.47
14 | Cn1nc(C(=O)NCCCN2CCCCC2)c2c1-c1ccccc1S(=O)(=O)C2 | 11.5
15 | O=Cc1ccc(OCc2ccc3c(c2)OCO3)cc1 | 13
16 | O=[N+]([O-])c1ccc(NCc2ccccc2)c2nonc12 | 19.7
17 | Cc1csc2nc(SCC(=O)N3CCN(c4ccccc4)CC3)[nH]c(=O)c12 | -5.39
18 | CCCOC(=O)c1ccc(Oc2c(-c3ccc(OCC)cc3O)n[nH]c2C)cc1 | 14.4
19 | COc1ccccc1CCNC(=O)Cn1c(=O)oc2ccccc21 | 16.8
20 | O=C(NCCc1ccccc1)c1cccc(Br)c1 | 11.7
21 | CCC(CC)c1nnc(NC(=O)CS(=O)(=O)c2ccccc2)s1 | 17.4
22 | O=C(NC1CCc2ccccc21)C12CN(Cc3ccccc3)CC1C(c1cccc([N+](=O)[O-])c1)=NO2 (stereo not drawn) | 15.5

Row | Structure (SMILES) | hERG current change (%, negative = inhibition) at 1uM [%]
23 | O=C(Nc1ccnn1C1CCN(Cc2cc(Cl)ccc2O)CC1)C1CC1 | -30.6
24 | COc1ccccc1NC(=O)c1c(C)nc2ccccc2c1C(=O)O | 9.61
25 | COc1cccc(CC(=O)N2CCCC(CCC(=O)N3CCN(c4ccccn4)CC3)C2)c1 (stereo not drawn) | -0.0329
26 | CCOC(=O)C1CCCN(C(=O)Cc2ccc(Cl)cc2)C1 (stereo not drawn) | 13.8
27 | O=C(NCC(=O)N1CCOCC1)OCc1ccccc1 | -48.7
28 | COc1ccc(CNC(=O)C[C@H]2C(=O)N(Cc3ccc(OC)cc3)C[C@@H]2Cc2ccccc2)cc1 | -13.5
29 | COC(=O)c1c(NC(=O)CSc2nnc(-c3cccnc3)n2Cc2ccco2)sc(C)c1C | 10.4
30 | Cc1cc(=O)c2c(O)c(O)ccc2o1 | 15.6
31 | O=C(CC1C(=O)NCCN1CC1CCCCC1)NCCc1ccc(F)cc1 (stereo not drawn) | -8.83
32 | c1ccc(-c2n[nH]c(-c3ccccn3)n2)cc1 | 8.17
33 | Cc1ccc(NC(=O)CCc2nnc3ccc(NCc4ccco4)nn23)cc1 | 9.62
34 | Cc1[nH]nc(N2CCCCC2)c1[N+](=O)[O-] | 6.81
35 | CCOC(=O)C1CN(S(=O)(=O)c2ccc(OC)cc2)c2cc(S(=O)(=O)CC)ccc2O1 (stereo not drawn) | -0.375
36 | NS(=O)(=O)c1ccc(CNC(=O)c2ccccn2)cc1 | 15.5
37 | COc1ccc(CN(C)C(=O)CCN2C(=O)c3ccccc3C2=O)c(OC)c1OC | 9.78
38 | Cc1ccc(OCc2nc(C#N)c(N3CCN(Cc4ccccc4)CC3)o2)cc1 | 3.29
39 | O=C(COc1ccc(F)cc1)NN1C(=O)CSC1=S | 5.55
40 | Cc1ccc(/C=N\NC(=O)c2ccc(Cn3cc(Br)c([N+](=O)[O-])n3)o2)o1 | 7.06
41 | CCOC(=O)/C=C/[C@H]1Cc2ccccc2CO1 | 8.33
42 | CCCCSCc1nc2ccccn2c1Br | 13.3
43 | CCCCc1cc(=O)oc2cc(C)cc(OC(C)C(=O)NCc3ccncc3)c12 (stereo not drawn) | -7.56
44 | O=C(COC(=O)COc1ccccc1)Nc1ccc(S(=O)(=O)N2CCOCC2)cc1 | 4.87

Row | Structure (SMILES) | hERG current change (%, negative = inhibition) at 1uM [%]
45 | O=S(=O)(Nc1ccccc1N1CCCCC1)c1ccc(F)cc1 | 4.27
46 | COc1ccccc1-n1cnnc1SCC(=O)c1c[nH]c2ccccc12 | 18.8
47 | COc1ccc(S(=O)(=O)N2CCCN(CC(=O)Nc3ccc(NC(C)=O)cc3)CC2)cc1 | 15.2
48 | O=C(NCCCn1ccnc1)c1noc2c1CCc1ccccc1-2 | -25.9
49 | CCCOc1ccc(C(C)(O)CN2CCOCC2)cc1 (stereo not drawn) | 14.7
50 | COC(=O)c1ccc(CN2CCCC(C(=O)Nc3cccc(-n4cnnn4)c3)C2)cc1 (stereo not drawn) | 1.05
51 | Cc1ccc(C(=O)NC2CCS(=O)(=O)C2)cc1S(=O)(=O)N1CCOCC1 (stereo not drawn) | 3.56
52 | Cc1ccc2nc(NC(=O)c3cccc(-c4cc5ccccc5oc4=O)c3)sc2c1 | 21
53 | Nc1c(S(=O)(=O)c2cccs2)c2nc3ccccc3nc2n1Cc1ccc2c(c1)OCO2 | 4.37
54 | Cc1ccc2oc(=O)c3cc(C(=O)NCCCN4CCN(C)CC4)sc3c2c1 | 9.08
55 | Cc1ccc(Cn2ccc(NC(=O)c3cc(C)on3)n2)cc1 | 17.8
56 | CCc1nnc(N/N=C/c2ccc(O)c(OC)c2)n1N | 19.7
57 | O=C(CCN1C(=O)/C(=C/c2ccccc2Cl)SC1=S)NC1=NCCS1 | 13
58 | COc1ccc(C(=O)Nc2ccccc2C(=O)Nc2cccnc2)cc1 | 7.13
59 | COc1ccc(/C=C/c2c([N+](=O)[O-])c(=O)n(C)c(=O)n2C)cc1O | 13.2
60 | Cc1ccc(CNC(=O)CN2C(=O)CSc3ccc(S(=O)(=O)N4CCC(C)CC4)cc32)cc1 | 9.13
61 | Cc1ccc(C2=NOC(=O)/C2=C\c2ccc(C)o2)cc1 | 9.81
62 | COC(=O)c1cc(/C=C/c2ccccc2)[nH]n1 | 3.54
63 | CN1CCN(c2ccccc2NC(=O)c2cc3c(s2)-c2ccccc2OC3)CC1 | 0.253
64 | COc1ccc(C(CNC(=O)c2ccc(S(=O)(=O)Nc3ccccc3C)cc2)N2CCOCC2)cc1 (stereo not drawn) | 3.04
65 | Cc1ccc(NC(=O)C2C3CCCC2C3c2ccccc2)c(C)c1 (stereo not drawn) | 4.75
66 | CC(=O)c1ccc(NC(=O)C2CCCN2S(=O)(=O)c2ccc(F)cc2)cc1 (stereo not drawn) | 1.16

Row | Structure (SMILES) | hERG current change (%, negative = inhibition) at 1uM [%]
67 | CC(=O)Nc1ccccc1C(=O)N1CCN(Cc2ccc3c(c2)OCO3)CC1 | 14.5
68 | Cc1cc(C)n(-c2ccc(C(=O)Nc3nnc(C4CC4)s3)cc2)n1 | 4.64
69 | COc1ccc(C(=O)N=C2SC3CS(=O)(=O)CC3N2Cc2ccc(OC)c(OC)c2)cc1 (stereo not drawn) | 10.7
70 | CCN1C[C@]2(COC)CC[C@H](OC)[C@@]34C5C[C@H]6C(=O)C5[C@](O)(C[C@H]6OC)[C@@](O)(C(OC)C23)[C@@H]14 (stereo partly drawn) | 8.6
71 | CC(CCc1ccccc1)NC(=O)CCNC(=O)Cn1ccc2ccccc2c1=O (stereo not drawn) | 15
72 | COc1ccccc1CNC(=O)[C@H](C)NC(=O)C1CCN(C(=O)[C@@H](N)CC(C)C)CC1 | -3.47
73 | COc1ccc(-n2c(=S)[nH]c3cc(C(=O)NCCCN4CCOCC4)ccc3c2=O)cc1OC | 23.7
74 | COCCC(=O)N1CCC(Oc2ccc(C(=O)NCc3csc(C)n3)cc2)CC1 | 10.2
75 | CCO.Nc1nc(N)c2cc(Sc3ccc4ccccc4c3)ccc2n1 | 2.73
76 | Cc1ccc(Cn2c(C(C)Nc3nc(-c4ccc(F)cc4)cs3)nc3cc(Cl)c(Cl)cc32)cc1 (stereo not drawn) | 9.52
77 | CCc1ccc(N(C2C=CS(=O)(=O)C2)S(=O)(=O)c2ccc(C)cc2)cc1 (stereo not drawn) | -13.3
78 | COc1cc(C2NC(=S)NC(c3ccccc3)=C2C(C)=O)ccc1O (stereo not drawn) | 11.4
79 | Cc1ccc2c(c1)N(C(=O)CCC(=O)NCCCN1CCN(C)CC1)CCO2 | 7.21
80 | COC(=O)c1cc2c(C)nn(C)c2s1 | 9.68
81 | FC(F)(F)c1cccc(NC(=S)N2CCN(c3ccccn3)CC2)c1 | 12.8
82 | COc1ccc(NC(=S)N2CCC(C(O)(c3ccccc3)c3ccccc3)CC2)cc1 | 5.8
83 | CCN(CC)C(=O)CSc1nnc2nnc3cc(Cl)ccc3n12 | 2.62
84 | Fc1ccc(CSc2nnc(CN3CCOCC3)n2-c2ccccc2)c(Cl)c1 | -0.2
85 | COc1ccccc1C(C)NC(=O)C1CCN(S(=O)(=O)c2cccs2)CC1 (stereo not drawn) | 9.63
86 | O=C(O)COc1ccc2c(c1)O/C(=C\c1ccco1)C2=O | 15.7
87 | CC(=O)C1=C(C)Nc2cc(C(F)(F)F)ccc2S1 | 7.9
